From CN116478288A

Key:
[1] = biological target: 人源CD47 (on cells: hCD47-overexpressing CHO-K1; Raji) (human) (UniProt Q08722); experiment: flow cytometry, purified antibody 10 ug/ml on CHO-K1 overexpressing human CD47
[2] = biological target: 人源CD47 (on cells: hCD47-overexpressing CHO-K1; Raji) (human) (UniProt Q08722); experiment: flow cytometry on Raji cells (endogenous human CD47); Blank 58.3
[3] = biological target: 食蟹猴CD47 (on overexpressing CHO-K1 cells) (cynomolgus monkey); experiment: flow cytometry, purified antibody 10 ug/ml on CHO-K1 overexpressing cynomolgus CD47
[4] = biological target: 人源CD47 (on cells: hCD47-overexpressing CHO-K1; Raji) (human) (UniProt Q08722); experiment: flow cytometry on Raji cells, 0.05 ug/ml ID 2 with competitor SIRPα at 5 ug/ml, anti-human Fc-APC
[5] = biological target: 人源CD47 (on cells: hCD47-overexpressing CHO-K1; Raji) (human) (UniProt Q08722); experiment: flow cytometry on Raji cells, 0.05 ug/ml ID 2 alone, anti-human Fc-APC (Raji alone 1329.3)

UniProt Q08722, sequence (Q08722 19-323): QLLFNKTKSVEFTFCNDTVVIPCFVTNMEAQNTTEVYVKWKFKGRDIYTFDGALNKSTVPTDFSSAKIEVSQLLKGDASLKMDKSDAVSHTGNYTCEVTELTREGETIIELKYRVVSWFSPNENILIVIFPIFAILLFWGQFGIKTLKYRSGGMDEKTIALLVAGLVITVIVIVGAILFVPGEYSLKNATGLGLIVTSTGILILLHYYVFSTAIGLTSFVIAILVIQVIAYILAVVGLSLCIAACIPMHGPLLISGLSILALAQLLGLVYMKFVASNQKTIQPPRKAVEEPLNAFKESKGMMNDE

MFI [1] [MFI]	MFI [2] [MFI]	MFI [3] [MFI]	MFI [4] [MFI]	MFI [5] [MFI]	Binder
2140	12300	1460			人源化抗体ID 5 (antibody, human IgG4 S228P, kappa) heavy: QVQLVQSGAEVKKPGASVKVSCKASGYTFTSYWMNWVRQAPGQGLEWMGRIDSSDSETHYNQKFKDRVTMTRDTSTSTVYMELSSLRSEDTAVYYCARQGEGLRRSWFPYWGQGTLVTVSSASTKGPSVFPLAPCSRSTSESTAALGCLVKDYFPEPVTVSWNSGALTSGVHTFPAVLQSSGLYSLSSVVTVPSSSLGTKTYTCNVDHKPSNTKVDKRV[human IgG4 Fc with S228P (EU numbers) omitted] light: DIVMTQSPDSLAVSLGERATINCRASKSVSTSGYSYIHWYQQKPGQPPKLLIYVASNLQSGVPDRFSGSGSGTDFTLTISSVQAEDVAVYYCQHIRELPWTFGQGTKVEIKRTVAAPSVFIFPPSDEQLKSGTASVVCLLNNFYPREAKVQWKVDNALQSGNSQESVTEQDSKDSTYSLSSTLTLSKADYEKHKVYACEVTHQGLSSPVTKSFNRGEC
1740	14600	2420	160000	262000	人源化抗体ID 2 (antibody, human IgG4 S228P, kappa) heavy: QVQLVQSGAEVKKPGASVKVSCKASGYTFTSYWMNWVRQAPGQGLEWMGRIDSSDSETHYNQKFKDRVTMTRDTSTSTVYMELSSLRSEDTAVYYCARQGEGLRRSWFPYWGQGTLVTVSSASTKGPSVFPLAPCSRSTSESTAALGCLVKDYFPEPVTVSWNSGALTSGVHTFPAVLQSSGLYSLSSVVTVPSSSLGTKTYTCNVDHKPSNTKVDKRV[human IgG4 Fc with S228P (EU numbers) omitted] light: DIVMTQSPDSLAVSLGERATINCRASKSVSTSGYSYIHWYQQKPGQPPKLLIYVASNLQSGVPDRFSGSGSGTDFTLTISSVQAEDVAVYYCQHIRELPWTFGQGTKLEIKRTVAAPSVFIFPPSDEQLKSGTASVVCLLNNFYPREAKVQWKVDNALQSGNSQESVTEQDSKDSTYSLSSTLTLSKADYEKHKVYACEVTHQGLSSPVTKSFNRGEC
